In PubChem BioAssay AID938 (National Center for Advancing Translational Sciences (NCATS), 2007):
Hit rate of the full screen: of about 73,000 compounds, about 1,800 (2.5%) were called active. Inconclusive means that the source gave no clear call. Such entries were picked first, then a sample of the others. The call rests on the fitted dose curve; in most records, active means well fitted activation curve with a large enough effect; inconclusive means small, poorly fitted or top-dose-only effect; inactive means no such curve, though single readings can be large or run the other way. No potency is given beside an inconclusive call; the fits are too rough.

Assay: qHTS Assay for Agonists of the Thyroid Stimulating Hormone Receptor: Activators of Intracellular cAMP Concentrations in Parental HEK 293; further: nearly all actives have a fitted effect of over 55% in size
Conditions: parental HEK293 CNG cAMP sensor, membrane potential fluorescence; series mostly up to 57.1 µM
Outline: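 Parental HEK 293 cells stably expressing a modified CNG channel (no TSHR) report cAMP rise as membrane depolarization. Membrane potential dye with 100 uM RO 20-1724 was loaded for 60 min at room temperature, then compound added for 30 min; fluorescence read at 590 nm.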
Potency means the concentration at half of the fitted maximal effect; tags describe the fitted curve by direction and shape.

**Q.** For `COc1cccc(/C(O)=C2/C(=O)C(=O)N(CCN3CCOCC3)C2c2cccs2)c1` (centres undefined), which Potency is on record?
**A.** inconclusive [activator, single point]

**Q.** For `CCC(c1nnnn1CCc1ccccc1)N(Cc1ccco1)Cc1cc2cccc(C)c2[nH]c1=O` (centres undefined), which Potency is on record?
**A.** active: 15.8 µM

**Q.** With `O=c1cnc2cnc(Oc3cccc(Cl)c3)nc2n1Cc1ccc(F)cc1` as the compound, how does the Potency read?
**A.** inconclusive [activator, single point]

**Q.** With `COc1ccc(-n2c(Cc3cccn3C)nnc2SCC(=O)N2CCCc3ccccc32)cc1` as the compound, how does the Potency read?
**A.** inactive

**Q.** Which Potency does the source give for `Cc1ccccc1Cn1cc(/C=N/n2cnnc2)c2ccccc21` here?
**A.** inconclusive [activator, partial curve]

**Q.** With `COc1ccc(Cl)cc1NC(=O)CCN1CCN(c2ccccc2C)CC1` as the compound, how does the Potency read?
**A.** inconclusive [activator, partial curve]

**Q.** With `CCCCN1CCc2c([nH]c3ccccc23)C1=O` as the compound, how does the Potency read?
**A.** inconclusive [activator, single point]

**Q.** With `Cc1cc(C)n(C(=O)CCCC(=O)n2nc(C)cc2C)n1` as the compound, how does the Potency read?
**A.** inconclusive [activator, single point]

**Q.** With `CCn1c(SCC(=O)c2ccccc2)nc2c(c1=O)SC(C)C2` (centres undefined) as the compound, how does the Potency read?
**A.** inconclusive [activator, partial curve]

**Q.** With `CCCn1c(-c2ccc(F)cc2)nc2c(NCCN(CC)CC)nc(C)nc21` as the compound, how does the Potency read?
**A.** inconclusive [activator, partial curve]

**Q.** For `CCOC(=O)C1CCN(C(=O)CN(c2cc(OC)ccc2OC)S(=O)(=O)c2ccccc2)CC1`, which Potency is on record?
**A.** inconclusive [activator, single point]

**Q.** For `COc1ccccc1CNc1ncncc1-c1ccc2c(c1)OCO2`, which Potency is on record?
**A.** inconclusive [activator, partial curve]

**Q.** For `CCCCCC(=O)N1CCN(CCN=CC2=C(O)CC(c3ccc(OC)cc3)CC2=O)CC1` (centres undefined), which Potency is on record?
**A.** inconclusive [activator, single point]

**Q.** Which Potency does the source give for `Cc1ccc(N2CCN(C(=O)CNS(=O)(=O)c3ccc(Br)s3)CC2C)cc1` (centres undefined) here?
**A.** inconclusive [activator, full curve]

**Q.** For `O=C(Nc1ccon1)c1cc2c(s1)CCCCCC2`, which Potency is on record?
**A.** inconclusive [activator, single point]

**Q.** With `O=C(c1ccco1)N1CCC[C@@]2(CCN(c3ccccc3)C2)C1` as the compound, how does the Potency read?
**A.** inconclusive [activator, full curve, poor fit]

**Q.** Which Potency does the source give for `CC(=O)Oc1ccccc1C(=O)O` here?
**A.** inconclusive [activator, full curve, poor fit]

**Q.** Which Potency does the source give for `CCCCn1c2nc3ccccc3nc2c2c(=O)n(CCC)cnc21` here?
**A.** inconclusive [activator, partial curve]

**Q.** Which Potency does the source give for `COc1ccc(CCC(=O)NCCc2cn3c(C)csc3n2)cc1` here?
**A.** inconclusive [activator, single point]

**Q.** For `O=c1c(-c2ccc(F)c(F)c2)nc2cncnc2n1Cc1ccc(F)cc1`, which Potency is on record?
**A.** inactive

**Q.** Which Potency does the source give for `O=S(=O)(c1cccc(-c2cn3cc(Cl)ccc3n2)c1)N1CCOCC1` here?
**A.** inconclusive [activator, single point]

**Q.** For `COc1ccccc1NC(=O)C1=C(C)NC(=O)NC1c1cccc(OC)c1OC` (centres undefined), which Potency is on record?
**A.** inconclusive [activator, single point]

**Q.** For `NCCCCN=C(N)N`, which Potency is on record?
**A.** inactive

**Q.** For `COc1ccccc1NC(=O)CN(Cc1ccco1)C(=O)c1cccs1`, which Potency is on record?
**A.** inconclusive [activator, single point]

**Q.** For `CCOc1cc(NC(=O)C2CC2)c(OCC)cc1NC(=O)c1ccccn1`, which Potency is on record?
**A.** inactive

**Q.** For `Cc1ccc(N(C(=O)Cn2nnc3ccccc32)C(C(=O)NCc2ccco2)c2ccc(C)o2)cc1` (centres undefined), which Potency is on record?
**A.** inconclusive [activator, partial curve]

**Q.** Which Potency does the source give for `CCC[C@@H]1C[C@@]1(CCC)C(NS(=O)(=O)c1cccc2cccnc12)c1ccc(Cl)cc1` (some centres undefined) here?
**A.** inconclusive [activator, partial curve]

**Q.** With `O=C(c1ccc(Br)o1)N1CCN=C1SCc1cccc(F)c1` as the compound, how does the Potency read?
**A.** inconclusive [activator, partial curve]

**Q.** For `Cc1ccc(N2C(=O)c3ccccc3C2Nc2ccccc2F)nc1` (centres undefined), which Potency is on record?
**A.** inconclusive [activator, full curve, poor fit]

**Q.** With `Oc1ccccc1N=Cc1ccc[nH]1` as the compound, how does the Potency read?
**A.** inconclusive [activator, single point]

**Q.** Which Potency does the source give for `O=c1c(-c2ccccc2)nc2cncnc2n1C1CC1` here?
**A.** inconclusive [activator, partial curve]

**Q.** For `CCN(CC)c1nc2ccccc2n2cnnc12`, which Potency is on record?
**A.** inactive

**Q.** With `CCOC(=O)C1CCCN(C(=O)c2cc(Cl)ccc2Cl)C1` (centres undefined) as the compound, how does the Potency read?
**A.** inconclusive [activator, partial curve]

**Q.** With `CCC(SC1=Nc2ccccc2C2=NC(CC(C)C)C(=O)N12)C(=O)Nc1ccc2c(c1)OCO2` (centres undefined) as the compound, how does the Potency read?
**A.** active: 15.8 µM

**Q.** For `Cc1ccc2c(CC(=O)OCc3nc(N)nc(Nc4ccccc4C)n3)coc2c1`, which Potency is on record?
**A.** inconclusive [activator, single point]

**Q.** Which Potency does the source give for `COc1cc(NC(=O)c2ccc3c(c2)OCO3)ccc1NC(=O)C(C)C` here?
**A.** inactive

**Q.** Which Potency does the source give for `C=CCn1c(=O)c(C(=O)NCCNCC)c(O)c2ccccc21` here?
**A.** active: 12.6 µM

**Q.** With `Cc1ccc(NC(=O)c2cccc(OCc3c(C)noc3C)c2)c(C)c1` as the compound, how does the Potency read?
**A.** inconclusive [activator, partial curve]

**Q.** Which Potency does the source give for `CCCC[C@@H]1C[C@H]1C(NC(=O)c1ccco1)c1ccc(C(=O)OC)cc1` (some centres undefined) here?
**A.** active: 25.1 µM

**Q.** Which Potency does the source give for `Cc1ccccc1C(=O)OCn1nnc2ccccc2c1=O` here?
**A.** inconclusive [activator, single point]

**Q.** With `COCCCN1C(=O)c2[nH]nc(-c3cc(C)cc(C)c3O)c2C1c1ccc(O)c(OC)c1` (centres undefined) as the compound, how does the Potency read?
**A.** inconclusive [activator, single point]

**Q.** With `COc1ccc(C(=O)Cn2c(N3CCOCC3)nc3ccccc32)cc1OC` as the compound, how does the Potency read?
**A.** inactive

**Q.** For `Cc1ccccc1C(=O)Nc1ccc2nc3n(c(=O)c2c1)CCC3`, which Potency is on record?
**A.** inactive

**Q.** Which Potency does the source give for `O=C(Nc1ccc(F)c(F)c1)c1ccc(F)c(S(=O)(=O)N2CCOCC2)c1` here?
**A.** inconclusive [activator, single point]
